Results published in the supplement of paper PMC10502849.
Structures can show the parent of a compound that is named as a salt. This is one part of the list. Many values rest on one well or one pass, so single values are uncertain.

Tests used:
[1] = system: H9 teratoma-derived LAM model cells, TSC2-/-; assay: percent SyTOX+ dead cells; higher = more cytotoxic; settings: 5 µM, treatment time 72 h, culture: 3D hyaluronic acid hydrogel
[2] = system: H9 teratoma-derived LAM model cells, WT; assay: percent SyTOX+ dead cells; higher = more cytotoxic; settings: 5 µM, treatment time 72 h, culture: 3D hyaluronic acid hydrogel, genotype: WT
[3] = system: H9 teratoma-derived LAM model cells, TSC2-/-; assay: percent of cells invaded past median invasion distance of vehicle control; LAM is lymphangioleiomyomatosis; the cells come from teratomas of the human stem cell line H9; higher = more invasion; extreme values may be limits of the assay; settings: 5 µM, treatment time 72 h, culture: 3D hyaluronic acid hydrogel
[4] = system: H9 teratoma-derived LAM model cells, WT; assay: as above; settings: 5 µM, treatment time 72 h, culture: 3D hyaluronic acid hydrogel, genotype: WT
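Wherever percent SyTOX+ dead cells is given: cells seeded atop a hyaluronic acid gel crosslinked via MMP-cleavable peptides, containing vitronectin peptides and methylcellulose, imaged live by high-content microscopy with automated analysis, one technical replicate per compound.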
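Wherever percent of cells invaded past median invasion distance of vehicle control is given: live cells imaged by high content microscopy and scored with in-house automated image analysis, one technical replicate per compound in each genotype and rapamycin condition.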

SMILES	percent SyTOX+ dead cells ([1]; rapamycin 0 nM)	percent SyTOX+ dead cells ([1]; rapamycin 20 nM)	percent SyTOX+ dead cells ([2]; rapamycin 0 nM)	percent SyTOX+ dead cells ([2]; rapamycin 20 nM)	percent ([3]; rapamycin 0 nM)	percent ([3]; rapamycin 20 nM)	percent ([4]; rapamycin 0 nM)	percent ([4]; rapamycin 20 nM)
O=C(NOCC(O)CO)c1cc(Br)c(F)c(F)c1Nc1ccc(I)cc1F (centres undefined)	26.3%	12.2%	42%	25.6%	69.1%	66.2%	59.6%	20.7%
Fc1cc(-c2cccc3ncc(-c4cnn(C5CCNCC5)c4)nc23)cc(F)c1CN1CCOCC1	12.9%	4.3%	17%	12.4%	79.5%	69.3%	64.5%	47.2%
Cc1ccc(C(=O)Nc2cccc(C(F)(F)F)c2)cc1-c1ccc2nc(NCCN3CCOCC3)ncc2c1	61.5%	68.4%	85.8%	82.4%	0%	3.16%	0%	0%
CN1CCN(CCOc2cc(OC3CCOCC3)c3c(Nc4c(Cl)ccc5c4OCO5)ncnc3c2)CC1	9.43%	28%	33.3%	46.3%	0%	0%	4.76%	1.05%
CNS(=O)(=O)Nc1nccc(Cc2c(C)c3ccc(Oc4ncccn4)cc3oc2=O)c1F	10.9%	4.13%	22.1%	17.8%	58.8%	84.1%	37.6%	28.7%
Cc1cc([N+](=O)[O-])ccc1NS(=O)(=O)c1cc(Cl)ccc1Cl	19.1%	12.7%	12.2%	10.1%	64.1%	48.5%	42.1%	44.4%
COc1ccc(C(=O)CC2(O)C(=O)Nc3c(Cl)ccc(Cl)c32)cc1 (single isomer, unassigned; (-))	11.6%	13.2%	16.6%	18.6%	44%	28.3%	34.7%	24%
C[C@@H]1CN(CC(=O)Nc2ccc3c(c2)Cc2cccc(-c4cc(=O)cc(N5CCOCC5)o4)c2S3)C[C@H](C)O1	8.75%	6.09%	15.6%	18.3%	71.2%	87.4%	53.1%	50.7%
Nc1cccc2c(=O)[nH]ccc12 [5-AIQ hydrochloride]	11.1%	11.4%	7.89%	8.24%	42%	45.3%	47.3%	54.3%
O=C(Nc1cc(C(F)(F)F)cc(C(F)(F)F)c1)c1cc(Cl)ccc1O	66.2%	71.1%	64.1%	66.2%	0.35%	1.63%	1.28%	1.25%
C=Cc1cc(O)cc2nc(-c3ccc(O)c(F)c3)oc12	6.22%	14.3%	9.97%	7.02%	59.1%	29%	19.9%	14.5%
NS(=O)(=O)c1nn2cc(-c3ccccc3)nc2s1	15.5%	24.6%	16.9%	24.9%	40.4%	54.2%	13.1%	12.1%
COc1cc2c(NC3CCN(C4CCCCC4)CC3)nc(N3CCCN(C(C)C)CC3)nc2cc1OCCCN1CCCCC1	14.1%	11.6%	12%	18.2%	59.1%	52.2%	61.1%	68.9%
O=S(=O)(Nc1ccccn1)c1ccc(N=Cc2c(O)[nH]c3ccc4ncsc4c23)cc1	27.5%	26.8%	35.3%	23.5%	2.5%	0%	0%	0%
Cc1ccc(F)c(NC(=O)Nc2ccc(-c3cccc4[nH]nc(N)c34)cc2)c1	24.3%	9.68%	25.2%	9.79%	15%	36.9%	14.6%	31.8%
Oc1c2ccccc2c2c3c(cccc13)N=N2	9.77%	15.1%	35.8%	23.9%	7.52%	46.8%	0%	2.65%
Cn1c(Nc2ccc(C(F)(F)F)cc2)nc2cc(Oc3ccnc(-c4ncc(C(F)(F)F)[nH]4)c3)ccc21	11.8%	5.68%	21.8%	31.9%	24.5%	55.5%	7.25%	1.95%
CCc1cc2c(cc1N1CCC(N3CCOCC3)CC1)C(C)(C)c1[nH]c3cc(C#N)ccc3c1C2=O	2.51%	4.93%	10.1%	5.63%	56.3%	34.5%	31.4%	11.9%
CCOC(=O)CCNc1cc(N2CCc3ccccc3CC2)nc(-c2ccccn2)n1	14.6%	14.9%	12.7%	11.8%	28.2%	36.8%	46.6%	26.4%
COc1cc2c(NC3CCN(C)CC3)nc(N3CCCN(C)CC3)nc2cc1OCCOCCN(C)C	7.36%	11.5%	12%	12.1%	53.5%	37.8%	55.9%	33.5%
Brc1c(Br)c(Br)c2n[nH]nc2c1Br	13.4%	23.8%	15.2%	12.3%	19.5%	11.4%	32.4%	27.9%
CCOc1cc(/C=C(\C#N)C(N)=O)cc(CSc2ccccc2)c1O	8.39%	3.32%	9.9%	5.53%	71%	99%	38%	79.7%
Ic1cccc(CSc2nnc(-c3ccncc3)o2)c1 [2-Thio(3-iodobenzyl)-5-(1-pyridyl)-[1,3,4]-oxadiazole]	11.2%	12.4%	6.61%	5.16%	18.4%	52.2%	44.2%	15.5%
